# Measured values reported in PubChem BioAssay AID743279 (National Center for Advancing Translational Sciences (NCATS), 2014).
# Among all 360,000 compounds or so, about 17,000 (4.7%) were called active. Inconclusive means that the source gave no clear call. Such entries were picked first, then a sample of the others. No stated cut-off is given here; in the data, active means activity change below about -50%; inconclusive means mostly about -30% to -49%; inactive means weaker than that.
# Assay: qHTS for Inhibitors of Inflammasome Signaling: IL-1-beta AlphaLISA Primary Screen
# Conditions: THP-1 LPS/ATP IL-1B secretion, 16 h; at 57.5 µM, stronger effect = lower value
# Summary of the method: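 Secreted IL-1B measured by AlphaLISA bead assay after 16 h compound exposure of THP-1 cells; compounds (final up to 57.5 uM) added 1 h before LPS (250 ng/mL) and ATP (1.25 mM) stimulation; lower signal means less secretion.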
# On the % scale 0 is the no-effect control and ±100 the full control effect.
row,SMILES,activity change
1,CCOC(=O)c1cnc2c(C)c(C)ccc2c1NCCN1CCOCC1,inconclusive: -47.2%
2,CCN1/C(=C/c2ccc3cc(C)cc(C)c3[n+]2CC)Sc2cc(C)ccc21,active: -97.4%
3,CC1(C)CC(N2CCN(C(c3ccccc3)c3ccccc3)CC2)=CC(=[N+]2CCCCC2)C1,active: -71.2%
4,COCCn1nnnc1C(c1cccs1)N1CCN(c2ccccc2)CC1 (centres undefined),inconclusive: -35.8%
5,Cc1ccc(N2Cc3ccccc3C2=O)cc1,inactive: 3.1%
6,Cn1ncc([N+](=O)[O-])c1C(=O)Nc1nc2ccccc2n1CCN1CCCCC1,inconclusive: -35.9%
7,O=C(C1COc2ccccc2O1)N1CCN(Cc2ccc3c(c2)OCO3)CC1 (centres undefined),inconclusive: -30.7%
8,CCC/C=C(\CCC)C(NC(=O)Cc1ccccc1)c1ccc(C(=O)OC)cc1 (centres undefined),inconclusive: -38.4%
9,O=S(=O)(Nc1ncccn1)c1ccc(NC(=S)Nc2ccc(Cl)cc2)cc1,inconclusive: -39.3%
10,Cc1cc(C)cc(-n2c3ccc(NC(=O)Cc4cccc5ccccc45)cc3c(=O)n2C)c1,inactive: 0%
11,S=C(NCCNC(=S)Nc1ccccc1)Nc1ccccc1,inactive: 2.27%
12,C=CCN(c1ccccc1)S(=O)(=O)c1cccc(C(=O)Nc2ccncc2)c1,inconclusive: -31.4%
13,O=C(O)c1ccccc1NS(=O)(=O)c1cccc(-n2sc3ccccc3c2=O)c1,active: -93.1%
14,ClCc1cc2ccccc2nc1Cl,inactive: -0.128%
15,O=C(c1ccccc1)c1ccc(-n2cnnc2)c([N+](=O)[O-])c1,active: -77.7%
16,Clc1cccc(Cl)c1CNc1ccc(N2CCCC2)cc1,inconclusive: -31.4%
17,CCC(C)N1CCN(C(=O)C2CCN(S(=O)(=O)c3c(C)noc3/C=C/c3ccco3)CC2)CC1 (centres undefined),inconclusive: -46.6%
18,COc1cc(OC)nc(C(NC(=O)C2CCN(Cc3ccc(Oc4ccccc4)cc3)CC2)c2ccccc2C)n1 (centres undefined),active: -57.8%
19,CCn1c(C)c(C)c2cc(C(=O)N3CCN(c4cccc(C)c4C)CC3)ccc21,inconclusive: -42.8%
20,CCN(CC(=O)Nc1ccc(NC(C)=O)cc1)C(=O)CCCc1c[nH]c2ccccc12,inconclusive: -44.8%
21,CCOC(=O)Cc1csc(NC(=O)CSc2nnc(-n3nc(C)cc3C)c3ccccc23)n1,inactive: 13.4%

row,SMILES,activity change
1,CCCCCCN1CCN(C2CN(Cc3cn(Cc4cc(C)cc(C)c4)nn3)S(=O)(=O)C2)CC1 (centres undefined),inconclusive: -36.1%
2,COc1ccc(N(CC(=O)NC(C)c2ccccc2)S(=O)(=O)c2ccc(C)cc2)cc1 (centres undefined),inconclusive: -46.8%
3,Cc1cccc(NC(=O)CSc2nc3ccccc3nc2N2CCCC2)c1,inconclusive: -33.3%
4,CCCCCCSc1cc(-c2nc3cnccn3c2NCCCC)ccc1OC,inconclusive: -41.2%
5,S=C1NCCN1CC1CCN(CCC23CC4CC(CC(C4)C2)C3)CC1,inconclusive: -45.5%
6,COc1cc2cc(CN(CCN3CCCC3)C(=O)Nc3ccc(F)cc3)c(=O)[nH]c2cc1OC,inconclusive: -34.6%
7,Cc1cccc(N2CC(C(=O)NCCC3=CCCCC3)CC2=O)c1C (centres undefined),inactive: 7.28%
8,O=C(CSC1=N/C(=C/c2ccc(Cl)c(Cl)c2)C(=O)N1c1ccccc1F)NC1CC1,inactive: -7.37%
9,COc1ccc2c(c1)c(C(C)=O)c(C)n2-c1ccccc1OC,inconclusive: -31.7%
10,CCN(CC)c1ccc(S(=O)(=O)N2CCCCC2)cc1NC(=O)CN1C(=O)NC2(CCCC2)C1=O,inconclusive: -36%
11,CC(=O)Nc1ccc(NC(=O)Nc2ccc3c(c2)N(C)C(=O)CS3)cc1,inconclusive: -33%
12,CCOc1cccc(C(=O)NCc2ccccc2)c1,inconclusive: -48.5%
13,O=C1C(Cc2ccccc2)Nc2ncnc(N3CCN(c4ccccc4)CC3)c2N1Cc1ccccc1 (centres undefined),active: -59.2%
14,O=C(CN1CCN(Cc2ccc3c(c2)OCO3)CC1)N1CCc2[nH]c3ccc(F)cc3c2C1,inconclusive: -41.8%
15,COc1cccc(/C=N/NC(=O)CSc2cccc3cccnc23)c1,inactive: 57.9%
16,COCCN(C(=O)COC(=O)c1cccnc1SC)c1c(N)n(Cc2ccccc2)c(=O)[nH]c1=O,inactive: 0%
17,CC(C)=CCc1c(O)c(CC=C(C)C)c2occ(-c3ccc(O)cc3)c(=O)c2c1O,active: -78.8%
18,COc1ccc(C2C3=C(CC(C)(C)CC3=O)Oc3ncn(CCCn4ccnc4)c(=N)c32)cc1 (centres undefined),inconclusive: -33.3%
19,COc1ccc(NC(=O)c2cc3nc(-c4ccccc4)cc(C)n3n2)cc1OC,inconclusive: -39.3%
20,COCCNCc1nc2sc(C)c(-c3ccccc3)c2c(=O)[nH]1,inactive: -3.43%
21,CCOC(=O)N1CCN(C(=O)COC(=O)CNC(=O)c2ccc(OCC)c(OCC)c2)CC1,inactive: 0.375%

row,SMILES,activity change
1,CCn1c2ccccc2c2cc(NC(=O)c3cc(C)on3)ccc21,inconclusive: -42.9%
2,COc1ccc(CN2CCN(S(=O)(=O)c3ccc(F)cc3)CC2)c(OC)c1OC,inactive: 20.5%
3,CCCCC[C@H](C)N1C[C@@H](COCc2ccccc2)Oc2cc(N3CC[C@@H](N(C)C)C3)ccc2S1(=O)=O,inconclusive: -39.1%
4,COc1ccccc1-c1nc2ccccc2c(=O)n1O,inactive: 10.9%
5,CCN1CCN(C(c2cccs2)C(C)NC(=S)Nc2cccc(C)c2C)CC1 (centres undefined),inconclusive: -45.3%
6,C[C@@H]1CCCCO[C@H](CN(C)C(=O)CCC(F)(F)F)[C@@H](C)CN([C@H](C)CO)C(=O)c2cc(NC(=O)c3ccncc3)ccc2O1,inconclusive: -30.1%
7,COc1ccc(CN(C)C(=O)c2ccccc2Sc2ccccc2C#N)cc1OC,inconclusive: -49.7%
8,Cc1cccc(NC(=O)c2n[nH]c([N+](=O)[O-])c2Br)c1C,inconclusive: -34.3%
9,COc1ccc(NC(=O)CSc2nc3ccccc3c(=O)n2CCCN2CCC(C)CC2)c(OC)c1,active: -61.7%
10,CC(NC(=O)c1ccc(Cl)c(S(=O)(=O)NC2CC2)c1)c1ccco1 (centres undefined),inconclusive: -46.5%
11,CCCCCCCCNS(=O)(=O)CCNCc1ccccc1OC,active: -61.6%
12,CN(CCCn1ccc(NC(=O)OCc2ccccc2)nc1=O)CCc1ccccn1,inconclusive: -44.2%
13,COc1ccc(-c2nnc(-c3ccc(Br)o3)o2)cc1OC,inconclusive: -37.5%
14,CCCCCC(=O)N/N=C/c1ccc([N+](=O)[O-])o1,inactive: 20.7%
15,O=C(O)CC1CCC(=C(Cl)Cl)C1 (centres undefined),active: -74.2%
16,CCc1ccc(S(=O)(=O)/N=C2/C=C(Sc3ncn[nH]3)C(=O)c3ccccc32)cc1,active: -99.3%
17,COC(=O)c1sc2nc(N3CCCCC3)c3c(c2c1N)CCCC3,inactive: -8.85%
18,CS(=O)(=O)N(CC(=O)Nc1ccc(CC#N)cc1)c1ccc(C23CC4CC(CC(C4)C2)C3)cc1,inconclusive: -31.7%
19,CC(=O)N1CCN=C1SCc1ccc(Cl)cc1,inconclusive: -30.1%
20,CC(=O)N1CCN(c2cc(N3CCc4ccccc4C3)c(F)cc2[N+](=O)[O-])CC1,inconclusive: -32%
21,O=c1c(Sc2ccccc2)c(C(F)(F)F)[nH]n1-c1ccccc1,inconclusive: -41.5%

row,SMILES,activity change
1,N#C/C(=C\c1cccc(Oc2ccccc2)c1)C(=O)N1CCOCC1,active: -99.8%
2,Cc1nc(S(=O)(=O)N(C)c2ccccc2)c(C#N)c(C)c1Cl,inconclusive: -46.2%
3,CC(C)(C)c1ccc(OCc2ccc(C(=O)Nc3cccnc3)o2)cc1,active: -51.5%
4,C[C@@H]1C[C@@H]2OC(=O)[C@]3(C)[C@H]2[C@@H](OC3(C)O)[C@]2(C)C(=O)C=C[C@H]12 (some centres undefined),active: -90.3%
5,CC(C)(C)c1ccc(NC(=O)COC(=O)c2ccc(NS(=O)(=O)c3ccc(F)c(F)c3)cc2)cc1,inconclusive: -41.3%
6,Cc1ccc(NC(=O)c2cc3c(s2)CCC3)cc1S(=O)(=O)N1CCOCC1,inconclusive: -36.8%
7,CCOc1ccc(/C=C/C(=O)c2cc(Br)ccc(=O)c2O)cc1,inconclusive: -34%
8,Cc1nc([N+](=O)[O-])c(Sc2nc3ccccc3n2C)n1Cc1ccccc1,active: -105%
9,CC(OCC(O)CN(C)Cc1nc2ccccc2c(=O)[nH]1)c1ccc(Cl)cc1 (centres undefined),inconclusive: -35.4%
10,N#CCC(CNc1ncc(C(F)(F)F)cc1Cl)OC(=O)c1ccc(Cl)cc1 (centres undefined),inconclusive: -37.9%
11,CCOC(=O)C1CCCN(Cc2cccc(Oc3ccccc3)c2)C1 (centres undefined),inactive: 1.73%
12,COc1ccc2c(c1)CC=C1C2CCC2(C)C(=O)C(=NO)CC12 (centres undefined),active: -87.6%
13,CCc1cc(C(=O)Nc2cc(S(=O)(=O)N3CCOCC3)ccc2N2CCN(CC)CC2)sc1C,inconclusive: -30.9%
14,CC(C)[C@H](NS(=O)(=O)c1ccccc1)C(=O)Nc1ccccc1N1CCOCC1,inactive: -1.82%
15,O=S(=O)(Cc1cc(NCc2ccccc2)nc(-c2ccncc2)n1)c1ccccc1,inactive: 55%
16,C=CCn1c(SCC(=O)NC2CCCC2)nc2scc(-c3ccco3)c2c1=O,inactive: -25%
17,CN1CCN(S(=O)(=O)c2ccc(Br)c3nsnc23)CC1,inconclusive: -38.6%
18,CCn1c(C)nc2cc(C(=O)NNC(=S)Nc3ccc(OC)cc3)ccc21,inconclusive: -32.1%
19,COc1ccc(-c2cc(C3CCN(c4ncccc4[N+](=O)[O-])CC3)[nH]n2)cc1,inactive: -28.8%
20,CN(C)CCCN(C(=O)c1ccc(C(=O)c2ccccc2)cc1)c1nc2ccc(F)cc2s1,inactive: -26.7%
21,Cc1ccc(CS(=O)Cc2ccc(C(=O)N3CCN(c4ccc(F)cc4)CC3)o2)cc1 (centres undefined),inconclusive: -37.9%
